Each structure is given as a SMILES string. The whole screen tested about 48,000 compounds, of which about 550 (1.1%) were called active. Roughly 4% stayed inconclusive and do not appear here. Rule as the data show it: active = potency below about 15 µM; inconclusive = mostly about 16 µM to 33 µM; inactive = weaker than that. This is one part of the list.
Potency is read from the fitted curve at half-maximal effect.

For this test, the target named is Lysosomal acid glucosylceramidase (Homo sapiens) (UniProt P04062). Description: Glucocerebrosidase.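 Also: the screen sought inhibitors.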 Particulars: purified enzyme, resorufin glucoside fluorescence (screen aimed at inhibitors), 20 min. Put shortly: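 Compounds titrated against 0.2 nM normal enzyme, 30 uM resorufin beta-D-glucopyranoside substrate, citrate/phosphate buffer with taurocholate and tween-20, pH 5.9. Reaction ran 20 min at room temperature; fluorescence (Ex 548/Em 600) gave AC50.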
UniProt P04062, sequence (P04062 whole entry, looked up): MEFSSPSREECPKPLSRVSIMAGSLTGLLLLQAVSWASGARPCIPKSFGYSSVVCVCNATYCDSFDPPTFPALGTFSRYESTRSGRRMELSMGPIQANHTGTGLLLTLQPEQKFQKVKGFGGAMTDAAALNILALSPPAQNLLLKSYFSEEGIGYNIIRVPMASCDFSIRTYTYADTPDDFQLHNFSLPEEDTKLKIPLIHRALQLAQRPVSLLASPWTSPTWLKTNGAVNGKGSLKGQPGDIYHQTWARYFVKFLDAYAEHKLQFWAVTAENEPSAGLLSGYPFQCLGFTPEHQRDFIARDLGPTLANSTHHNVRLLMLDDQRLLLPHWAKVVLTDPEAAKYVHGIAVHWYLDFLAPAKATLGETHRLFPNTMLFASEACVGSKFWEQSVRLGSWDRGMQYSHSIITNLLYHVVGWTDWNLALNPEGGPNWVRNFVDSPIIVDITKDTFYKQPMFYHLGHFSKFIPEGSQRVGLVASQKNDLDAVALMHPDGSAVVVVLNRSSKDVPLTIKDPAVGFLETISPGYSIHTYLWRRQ
In the case of `Cc1ccc(-n2c(CNc3ccc(F)cc3)nnc2SCC(=O)N2CCCC2)cc1`, the Potency is inactive: > 76.9 µM.

For the molecule `O=C(NCCc1ccccc1)C1CC(c2ccccc2O)=NO1` (stereo unspecified), the Potency is inactive: > 76.9 µM.

For the molecule `COc1ccc(NC(=O)c2ccc3c(c2)C(=O)N(Cc2cccnc2)C3=O)cc1`, the Potency was inactive: > 76.9 µM.

In the case of `CC(=O)N1CCc2cc(Br)cc(S(=O)(=O)NCc3ccccn3)c21`, the Potency is inactive: > 76.9 µM.

Consider `COc1ccc(-n2ncc3c(N4CCCc5ccccc54)ncnc32)cc1`, for which the Potency is inactive: > 76.9 µM.

Take `O=C1/C(=N/n2cnnc2)c2ccccc2N1Cc1ccccc1`: the Potency was inactive: > 76.9 µM.

Consider `COc1ccccc1CN1CCN(C(CC(C)C)c2nnnn2Cc2cccs2)CC1` (stereo unspecified), for which the Potency was inactive: > 76.9 µM.

With `CCN(CCCNC(=O)C1CCN(S(=O)(=O)CC)CC1)c1cccc(C)c1`, the Potency was inactive: > 76.9 µM.

Consider `CC(NC(=O)Nc1ccccc1O)(C(F)(F)F)C(F)(F)F`, for which the Potency is inactive: > 76.9 µM.

`COC(=O)c1cc(OC)c(OC)cc1NC(=O)c1cnccn1`: the Potency was inactive: > 76.9 µM.

For `CCn1c(SCC(=O)Nc2cc(C)on2)nc2c1c(=O)n(C)c(=O)n2C`, the Potency was inactive: > 76.9 µM.

`Cc1cc(C)nc(N(C#N)S(=O)(=O)c2ccccc2)n1`: the Potency is inactive: > 76.9 µM.

`O=C(C1CCN(C2CC(=O)N(c3ccc(Cl)cc3)C2=O)CC1)N1CCOCC1` (stereo unspecified): the Potency is inactive: > 76.9 µM.

Turning to `Cc1nn(Cc2ccccc2)c(Cl)c1C(=O)OC1CCOC1=O` (stereo unspecified), the Potency is inactive: > 76.9 µM.

Take `CCOc1ccccc1NC(=O)c1ccc2nccnc2c1`: the Potency was inactive: > 76.9 µM.

Consider `COc1ccc(-c2nnc3n2N=C(C)CS3)cc1OC`, for which the Potency is inactive: > 76.9 µM.

For the molecule `CCOC(=O)N1CCN(S(=O)(=O)Cc2ccccc2)CC1`, the Potency is inactive: > 76.9 µM.

For `CCn1c(SCC(=O)NCCOC)nc2sc3c(c2c1=O)CCCC3`, the Potency was inactive: > 76.9 µM.

On to `Cc1c(NC(=O)CN2C(=O)c3cccc4cccc2c34)c(=O)n(-c2ccccc2)n1C`, for which the Potency is inactive: > 76.9 µM.

For the molecule `COc1cccc(-c2cc(C(=O)NCc3ccc(Cl)cc3)no2)c1`, the Potency is inactive: > 76.9 µM.

For the molecule `CCCCn1c(N)c(Sc2ccc(C)cc2)c(=O)[nH]c1=O`, the Potency is inactive: > 76.9 µM.

Take `O=C(NCCc1ccccc1)c1cc2ncc(Br)cn2n1`: the Potency is inactive: > 76.9 µM.

As to `O=C(NCc1ccc2c(c1)OCO2)c1cc(S(=O)(=O)N2CCCCC2)ccc1F`, the Potency is inactive: > 76.9 µM.

With `O=C(Nc1ccc(Cl)cn1)Nc1cccs1`, the Potency is inactive: > 76.9 µM.

As for `Cc1cc(N2CCOCC2)nc(SCC(=O)c2ccccc2)n1`, the Potency was inactive: > 76.9 µM.

Turning to `COc1ccc(OCc2nn3c(Cn4cnc5ccccc54)nnc3s2)cc1`, the Potency was inactive: > 76.9 µM.

In the case of `O=C1CCCN1c1ccc(S(=O)(=O)N2CCN(c3ccccn3)CC2)cc1`, the Potency was inactive: > 76.9 µM.

In the case of `O=C(NCc1ccco1)C(NS(=O)(=O)c1cccc2nsnc12)c1ccccc1` (stereo unspecified), the Potency was inactive: > 76.9 µM.

Turning to `CCOC(=O)c1cc2c(=O)n(C)c3ccccc3c2s1`, the Potency was inactive: > 76.9 µM.

Consider `CN1CCc2c(sc3c2C(=O)NC(c2cccs2)N3)C1` (stereo unspecified), for which the Potency is inactive: > 76.9 µM.

Consider `CC(=O)OC1=C(C#N)Cn2ccc3cccc1c32`, for which the Potency is inactive: > 76.9 µM.

`CCCSc1nnc2[nH]c(=O)cc(N)n12`: the Potency is inactive: > 76.9 µM.

Consider `Cc1ccc2[nH]c(=O)c(CN(CC3CCCO3)C(=O)c3ccco3)cc2c1` (stereo unspecified), for which the Potency is inactive: > 76.9 µM.

For the molecule `O=C(CN1C(=O)c2ccccc2S1(=O)=O)N1CCOCC1`, the Potency is inactive: > 76.9 µM.

With `CSCC[C@H](NC(=O)OC(C)(C)C)c1nnc(SCC=C(C)C)o1`, the Potency is inactive: > 76.9 µM.

On to `O=C(Cn1cnc2c(nnn2Cc2ccc(F)cc2)c1=O)NC1CCCC1`, for which the Potency was inactive: > 76.9 µM.

With `O=c1cc(-c2ccccc2)nc2nc(COc3ccccc3)[nH]n12`, the Potency is inactive: > 76.9 µM.

In the case of `COCCCNc1ncnc2c1cnn2-c1ccc(C)cc1C`, the Potency is inactive: > 76.9 µM.

As for `COc1ccc(N2C(=O)CSC23C(=O)N2CCCc4cccc3c42)cc1` (stereo unspecified), the Potency was inactive: > 76.9 µM.

Take `COc1ccc(Cc2nnc(SCC(=O)NCc3ccco3)o2)cc1`: the Potency is inactive: > 76.9 µM.

Take `Nc1nnc(CC(=O)NCc2ccccc2)s1`: the Potency was inactive: > 76.9 µM.

Consider `COc1ccccc1OC(C)C(=O)O` (stereo unspecified), for which the Potency was inactive: > 76.9 µM.

For the molecule `COc1cccc(-n2c(C)nc3c(cnn3-c3ccc(C)cc3)c2=O)c1`, the Potency is inactive: > 76.9 µM.

For the molecule `O=C(c1cnn2c(C(F)F)cc(-c3ccccc3)nc12)N1CCOCC1`, the Potency is inactive: > 76.9 µM.

With `CC(C)c1ccc(NC(=O)C(c2ccc3c(c2)OCO3)N2CCN(C(=O)c3ccco3)CC2)cc1` (stereo unspecified), the Potency was inactive: > 76.9 µM.

On to `COc1c(Cl)ccc(Cl)c1C(=O)NC(=O)N1CCOCC1`, for which the Potency is inactive: > 76.9 µM.

As for `O=C(CCn1nc(-c2ccccc2)ccc1=O)N1CCOCC1`, the Potency was inactive: > 76.9 µM.

In the case of `CCc1ccc(S(=O)(=O)NCCc2csc(-c3ccccc3)n2)s1`, the Potency was inactive: > 76.9 µM.

Regarding `CCOc1ccc(CCNC(=O)CCc2nc(-c3ccc(C)cc3)no2)cc1OCC`, the Potency was inactive: > 76.9 µM.

Consider `Cc1ccc(/C=C/C2=Cc3c(sc(NC(=O)CSc4n[nH]c(N)n4)c3C#N)C(C)(C)C2)o1`, for which the Potency result was “inactive”.

`CCC(Oc1ccc2ccccc2c1)C(=O)O` (stereo unspecified): the Potency is inactive: > 76.9 µM.

In the case of `O=c1[nH]c2ccccc2n1CCCOc1ccccc1`, the Potency is inactive: > 76.9 µM.

With `COc1ccc2oc(=O)c(C(=O)N3CCN(c4ccccc4F)CC3)cc2c1`, the Potency is inactive: > 76.9 µM.

As for `O=C(CSc1nnc(CNC(=O)c2cccs2)o1)Nc1cccc(C(F)(F)F)c1`, the Potency is inactive: > 76.9 µM.

On to `CC(=NCCCn1ccnc1)C1=C(O)c2ccccc2C1=O`, for which the Potency is inactive: > 76.9 µM.

Consider `O=c1oc2c(CN3CCOCC3)c(O)c(Cl)cc2c2c1CCCC2`, for which the Potency was inactive: > 76.9 µM.

Take `CC1(C)Cc2cccc(OCC(=O)O)c2O1`: the Potency was inactive: > 76.9 µM.

With `COc1cc(Nc2nc(SCC#N)nc3ccccc23)cc(OC)c1OC`, the Potency is inactive: > 76.9 µM.

`O=C(CSc1nc2cc(Cl)ccc2s1)N1CCN(C(=O)c2ccco2)CC1`: the Potency was inactive: > 76.9 µM.

Regarding `Cc1nc2nc[nH]n2c(=O)c1CCC(C)C`, the Potency is inactive: > 76.9 µM.

Take `N#CCC(=O)NCC1(c2ccccc2)CCCC1`: the Potency was inactive: > 76.9 µM.

With `COc1ccc(CN2C(=O)c3cccnc3C2Nc2ccc(OC)c(Cl)c2)cc1` (stereo unspecified), the Potency is inactive: > 76.9 µM.

Regarding `O=C(CCC(=O)Nc1nnc(C2CCCCC2)s1)NCc1cccs1`, the Potency is inactive: > 76.9 µM.

As to `CCC(=O)N1c2ccc(S(=O)(=O)N(CCO)Cc3ccccc3)cc2CC1C` (stereo unspecified), the Potency is inactive: > 76.9 µM.

`Cn1c(=O)[nH]c(=O)c2c1nc(N1CCN(Cc3ccccc3)CC1)n2CCCc1ccccc1`: the Potency is inactive: > 76.9 µM.

Turning to `CC1CC(=O)C2=C(C1)Nc1ccccc1N(C(=O)COc1ccccc1)C2c1ccco1` (stereo unspecified), the Potency is inactive: > 76.9 µM.

As for `COc1cccc(OC)c1C(=O)Nc1ccc(S(=O)(=O)Nc2cc(C)nc(C)n2)cc1`, the Potency was inactive: > 76.9 µM.

Consider `CCOC(=O)c1c(C)c(C(=O)N2CCN(c3cccc(Cl)c3)CC2)c(C)n1C`, for which the Potency is inactive: > 76.9 µM.

Take `CCCCC12CN3CC(C)(CN(C1)C31C(=O)N(C)c3ccc(C)cc31)C2=O` (stereo unspecified): the Potency is inactive: > 76.9 µM.

With `CCCCNC(=O)CC(=O)Nc1ccccc1C(=O)O`, the Potency is inactive: > 76.9 µM.

Regarding `Nc1nonc1/C(=N/O)N1CCCC1`, the Potency is inactive: > 76.9 µM.

On to `COC(=O)c1cc(C(=O)OC)n(Cc2ccc(F)cc2)n1`, for which the Potency was inactive: > 76.9 µM.

Regarding `CCn1c(SCC(=O)c2ccc(Cl)cc2)nnc1C(C)C`, the Potency was inactive: > 76.9 µM.

Take `COc1ccc2[nH]c(=O)c(CN(Cc3ccccc3)Cc3nnnn3CC3CCCO3)cc2c1` (stereo unspecified): the Potency is inactive: > 76.9 µM.

Regarding `CC1=C(C(=O)NCc2ccccc2)C(c2ccc(C)o2)n2ncnc2N1` (stereo unspecified), the Potency was inactive: > 76.9 µM.

Turning to `CCSc1nc(C)cc(Oc2ccc(=O)n(C)n2)n1`, the Potency is inactive: > 76.9 µM.

In the case of `O=C(CN1C(=O)CSc2ccccc21)NC1CCCC1`, the Potency is inactive: > 76.9 µM.

For the molecule `O=C(Cn1cnc2c(nnn2Cc2ccccc2F)c1=O)N1CCN(c2ccccc2)CC1`, the Potency was inactive: > 76.9 µM.

`C=CCn1c(O)c(C(CC)=NCCN2CCOCC2)c(=O)[nH]c1=O`: the Potency was inactive: > 76.9 µM.

As for `Cc1ccc(NC(=O)C2CCCN(S(=O)(=O)c3c(C)noc3C)C2)cc1F` (stereo unspecified), the Potency result is “inactive”.

In the case of `CC(=O)N1CCN(c2ccc(NCc3cccs3)cc2)CC1`, the Potency result is “inactive”.

In the case of `CCCc1nc2ccccc2c(=O)n1/N=C/c1c(C)[nH]n(-c2ccc(C)cc2)c1=O`, the Potency is inactive: > 76.9 µM.

`O=C(CNC(=O)c1ccc(Br)o1)Nc1cccc(-c2cnc3ccccc3n2)c1`: the Potency was inactive: > 76.9 µM.

Consider `CCN1C(=O)c2ccc(C(=O)O)cc2C1=O`, for which the Potency was inactive: > 76.9 µM.

Consider `COc1ccc(-c2cc(C(F)(F)F)nc(SCCC(=O)Nc3cc(C)on3)n2)cc1`, for which the Potency is inactive: > 76.9 µM.

For the molecule `CC(=O)c1c(C)[nH]c(C(=O)OCC(=O)Nc2ncc(Cl)c(C)c2Cl)c1C`, the Potency is inactive: > 76.9 µM.

In the case of `CC1CCN(S(=O)(=O)c2ccc(S(=O)(=O)N3CCN4CCCC4C3)cc2)CC1` (stereo unspecified), the Potency is inactive: > 76.9 µM.

With `CC(C)c1nnc(NC(=O)CCC(=O)N2CCN(Cc3ccccc3)CC2)s1`, the Potency is inactive: > 76.9 µM.

Take `CCn1nnc(NC(=O)COc2cc(C)ccc2C(C)C)n1`: the Potency was inactive: > 76.9 µM.

In the case of `CCOC(=O)CC1=Nc2ccccc2NC(=O)C1`, the Potency was inactive: > 76.9 µM.

On to `CCOC(=O)c1ccc(S(=O)(=O)N2CCC(C(=O)OCC)CC2)cc1`, for which the Potency was inactive: > 76.9 µM.

Values taken from PubChem BioAssay AID360 (National Center for Advancing Translational Sciences (NCATS), 2006).
